The text below walks through data of the supplement of paper PMC3334620.

Over roughly 33,000 sequences, “E-score (-0.5 to 0.5)” has its median near -0.012; the highest 2% begin near 0.27. The list shows a part of the results.

The target of this assay is T1, Vhr1 (UniProt P40522).
T1 sequence: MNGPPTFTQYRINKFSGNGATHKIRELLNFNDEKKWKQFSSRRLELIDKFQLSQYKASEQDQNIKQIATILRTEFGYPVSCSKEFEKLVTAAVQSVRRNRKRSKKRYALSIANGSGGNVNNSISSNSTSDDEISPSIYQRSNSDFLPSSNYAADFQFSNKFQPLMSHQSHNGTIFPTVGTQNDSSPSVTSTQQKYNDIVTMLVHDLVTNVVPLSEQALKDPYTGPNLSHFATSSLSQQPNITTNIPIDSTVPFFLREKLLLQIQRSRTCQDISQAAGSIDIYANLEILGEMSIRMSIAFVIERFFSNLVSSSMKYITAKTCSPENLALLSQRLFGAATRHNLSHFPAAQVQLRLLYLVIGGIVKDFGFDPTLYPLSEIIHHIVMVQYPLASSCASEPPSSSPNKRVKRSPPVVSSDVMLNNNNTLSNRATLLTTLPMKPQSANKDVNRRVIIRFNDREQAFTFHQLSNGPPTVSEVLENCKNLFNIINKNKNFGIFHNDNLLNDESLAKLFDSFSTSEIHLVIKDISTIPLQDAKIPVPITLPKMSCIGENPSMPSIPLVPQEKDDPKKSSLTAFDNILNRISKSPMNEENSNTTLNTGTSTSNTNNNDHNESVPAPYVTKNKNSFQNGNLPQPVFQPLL
In words: PBM E-score (8-mer binding enrichment) (E-score (-0.5 to 0.5)); higher = stronger / more preferred TF binding; most listed sequences are background and not binding sites. Conditions: protein concentration: 200 nM; construct: GST-full length. A digest of the protocol: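 For each ungapped eight-base word taken together with its reverse complement, the Universal PBM Analysis Suite assigned an E-score. Binding data came from GST-tagged yeast transcription factors, applied at about 100-200 nM, on universal all-10-mer Agilent arrays made double-stranded by primer extension. Fluorescent anti-GST marked bound protein, and scans were normalised with masliner.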
As for ATACCGCC, the “PBM E-score” value was 0.124.

In the case of GTCTTGTA, the “PBM E-score” value was -0.0671.

Turning to ATCTGGCC, the “PBM E-score” value was -0.109.

Take GTCTAGAC: the “PBM E-score” value was -0.298.

As for AACGTTAT, the “PBM E-score” value was -0.0644.

For the sequence ATTGCGGG, the “PBM E-score” value is 0.0612.

On to CCGGATCG, for which the “PBM E-score” value came to 0.0761.

Regarding ACGTAACT, the “PBM E-score” value is -0.0668.

In the case of CTCATTCC, the “PBM E-score” value turned out to be 0.124.

ACATACCA: the “PBM E-score” value worked out at 0.0165.

Take GGTCGGGA: the “PBM E-score” value was 0.147.

In the case of CGCATGGC, the “PBM E-score” value was determined as 0.131.

For the sequence GAAAGACA, the “PBM E-score” value was -0.0138.

As for CGGCAATC, the “PBM E-score” value stood at 0.0215.

For AGTATTTG, the “PBM E-score” value is -0.00113.

For GATGACGC, the “PBM E-score” value was -0.0256.

Turning to AGAGCAAC, the “PBM E-score” value was -0.17.

As to GTGTGCCA, the “PBM E-score” value is -0.0072.

CTGTGAGA: the “PBM E-score” value is 0.0386.

Consider AAGCGCTC, for which the “PBM E-score” value was -0.145.

ATTCCTAC: the “PBM E-score” value worked out at 0.0429.

Regarding AAGTCAAT, the “PBM E-score” value is 0.0223.

With ATTATCCG, the “PBM E-score” value was 0.143.

On to AGTCACGA, for which the “PBM E-score” value stood at 0.411.

Consider CGTTACTA, for which the “PBM E-score” value is -0.0295.

On to CCGGAGGC, for which the “PBM E-score” value was -0.141.

On to CTCTCACA, for which the “PBM E-score” value is -0.0943.

As to CGTTCTGA, the “PBM E-score” value is -0.113.

Take GCAGTTCA: the “PBM E-score” value is -0.0212.

Turning to AGAACTCG, the “PBM E-score” value is -0.177.

Consider CAGGTTTC, for which the “PBM E-score” value amounted to 0.0965.

In the case of CCGGGTTA, the “PBM E-score” value was -0.0527.

Consider AAGACCGA, for which the “PBM E-score” value was -0.0192.

Take AGCGCTAT: the “PBM E-score” value is 0.0728.

GTTGCTGA: the “PBM E-score” value was determined as 0.156.

On to CCTTTTCC, for which the “PBM E-score” value is -0.177.

ACAAACAC: the “PBM E-score” value was 0.221.

As to GGTCAACA, the “PBM E-score” value worked out at 0.117.

On to CATTTTGC, for which the “PBM E-score” value is -0.0629.

Turning to CATCAACC, the “PBM E-score” value is 0.134.

Turning to AACCAGCG, the “PBM E-score” value was -0.0412.

Take AGGGATAC: the “PBM E-score” value is -0.202.

Regarding CAACACCA, the “PBM E-score” value is 0.0182.

Consider GGTGATGA, for which the “PBM E-score” value came out at 0.233.

GGAGATGA: the “PBM E-score” value stood at 0.179.

Turning to AAACGAAC, the “PBM E-score” value was -0.0903.

As to CGCTACCA, the “PBM E-score” value is -0.0821.

As to TACGAGCA, the “PBM E-score” value is -0.0868.

For the sequence GATTCCTA, the “PBM E-score” value was 0.174.

As to ACTAGAAA, the “PBM E-score” value was -0.0971.

AACCCAAC: the “PBM E-score” value came out at 0.109.

On to TAGTCCCA, for which the “PBM E-score” value is -0.0146.

Turning to ATGAAGCA, the “PBM E-score” value is -0.0188.

For the sequence ACTTTGAC, the “PBM E-score” value is -0.0831.

Take CTCAATAC: the “PBM E-score” value amounted to 0.226.

Take GTTCATGA: the “PBM E-score” value was determined as 0.142.

In the case of AGCGCATG, the “PBM E-score” value was -0.0159.

As to CATTAGCG, the “PBM E-score” value is -0.128.

AGCAGAAA: the “PBM E-score” value is -0.0637.

On to ATGCTCAG, for which the “PBM E-score” value worked out at 0.141.

On to AGAGATGA, for which the “PBM E-score” value is 0.107.

With CACATCGG, the “PBM E-score” value was found to be 0.191.

Consider GGCACCTA, for which the “PBM E-score” value is -0.143.

Turning to AGCATCTA, the “PBM E-score” value is 0.0249.

Turning to AGAGAATA, the “PBM E-score” value is 0.0402.

As to AAACATTG, the “PBM E-score” value was -0.0198.

Consider AGTAATTC, for which the “PBM E-score” value was -0.183.

Turning to AGTCGAGC, the “PBM E-score” value stood at 0.0485.

For TCCCTTCA, the “PBM E-score” value was -0.0485.

As for ACACCCAG, the “PBM E-score” value worked out at 0.125.

Turning to AATAAGGG, the “PBM E-score” value was -0.109.

For the sequence CTATCCAA, the “PBM E-score” value was -0.00927.

On to AACATCGG, for which the “PBM E-score” value came out at 0.0341.

Consider ATTTAAGC, for which the “PBM E-score” value was -0.151.

In the case of CGAATCCA, the “PBM E-score” value was -0.0103.

As for TGTATACA, the “PBM E-score” value is 0.0245.

On to GTGCATTA, for which the “PBM E-score” value was -0.0983.

In the case of GCAGCCTA, the “PBM E-score” value was -0.207.

For AGCTGACG, the “PBM E-score” value was -0.12.

For the sequence GGACCAAC, the “PBM E-score” value came to 0.104.

As to CGACATGA, the “PBM E-score” value came out at 0.181.

In the case of TAGCTTCA, the “PBM E-score” value was -0.112.

As to CTACTTCC, the “PBM E-score” value was -0.0528.

With TAGTGATA, the “PBM E-score” value is 0.102.

For CGAGGTAC, the “PBM E-score” value was determined as 0.0216.

As for AAATGGGC, the “PBM E-score” value is -0.207.
